Measurements published in publication PMC12334862 (Journal of Neurochemistry, 2025).

Biological target: T1, > 5 MDa GephHO-Folch-CB2_(SH3-) complex (rat)
T1 construct: it elutes in the void volume (> 5 MDa); also called GephHO-CB2SH3- complex; high-molecular weight gephyrin-CB2SH3- complex; source: formed from purified E. coli proteins (GephHO, CB2SH3-) with Folch lipids in DDM micelles
Assay: SEC; analytical SEC of LS-αβICD with GephHO, with CB2SH3- or with GephHO, Folch and CB2SH3-; SDS-PAGE of peak fractions (Figure S4D,E)
Details: both partners purified

band ratio of LS-αβICD within the void volume peak P1: 63%
B1: LS-αβICD (heteropentameric yeast lumazine synthase carrying the GlyR α1 and GlyR β intracellular cytosolic domains) (complex)
chain 1: not shown
chain 2: AVNFVSRQHKELLRFRRKRRHHKSPMLNLFQDDEGGEGRFNFSAYGMGPACLQAKDGISVKGANNNNTTNPAPAPSKSPEEMRKLFIQRAKKIDK
